Results taken from PubChem BioAssay AID485281 (National Center for Advancing Translational Sciences (NCATS), 2010).
About 260 (0.074%) of roughly 350,000 compounds were called active. Inconclusive means that the source gave no clear call. Such entries were picked first, then a sample of the others. The call rests on the fitted dose curve; in most records, active means well fitted inhibition curve with a large enough effect; inconclusive means small, poorly fitted or top-dose-only effect; inactive means no such curve, though single readings can be large or run the other way. Potencies beside an inconclusive call are fits to weak or partial responses and may not hold up.

Target: Ferritin light chain (Equus caballus) (UniProt P02791)
UniProt P02791, sequence (P02791 whole entry, looked up): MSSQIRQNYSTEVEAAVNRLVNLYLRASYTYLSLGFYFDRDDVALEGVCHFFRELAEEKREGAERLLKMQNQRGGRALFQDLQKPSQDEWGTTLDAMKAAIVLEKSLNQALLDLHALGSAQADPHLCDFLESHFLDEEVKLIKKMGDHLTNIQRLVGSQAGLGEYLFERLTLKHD
Test: qHTS Assay for Identification of Novel General Anesthetics; further: nearly all actives have a fitted effect of over 20% in size
Details: apoferritin/1-aminoanthracene competitive binding, fluorescence; activity change, negative = displacement: at 77.5 µM (top of the series)
In short: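 Probe: 1-aminoanthracene (50% saturated, PBS). Protein: horse-spleen apoferritin, 10 uM. Incubation: 10 min, room temperature. Detection: 380 nm excitation, 535 nm emission. Analysis: normalized response, four-parameter Hill.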
On the % scale 0 is the no-effect control and ±100 the full control effect; potency means the concentration at half of the fitted maximal effect; tags describe the fitted curve by direction and shape.

SMILES | Potency | activity change, negative = displacement
CCN(CC)c1ccc(C=Nc2ccc(N(C)C)cc2)c(O)c1 | inconclusive: 31.6 µM [inhibitor, partial curve] | 
O=C(C1=C[C@@H](c2ccc(C(F)(F)F)cc2)C[C@@H](OCc2ccc(CO)cc2)O1)N1CCN(Cc2ccccc2)CC1 | inconclusive: 14.1 µM [inhibitor, partial curve] | 
CC1CCC(n2c(=S)[nH]c3ccccc3c2=O)CC1 (stereo unspecified) | inconclusive: 25.1 µM [inhibitor, partial curve] | 
COc1cc(OC)cc(C(=O)Nc2ccc(C(=O)c3ccncc3)cc2)c1 | inconclusive: 28.2 µM [inhibitor, partial curve] | 
Cc1cc(Br)cc2c1N(Cc1ccccc1OC(C)C)C(=O)C2=O | inconclusive: 28.2 µM [inhibitor, partial curve] | 
COc1cccc(-c2nnc(NC(C)=O)o2)c1 |  | inactive: 0.921%
O=C1/C(=C/c2ccccc2)SC(=S)N1CCCC(=O)N1CCCCC1CCO (stereo unspecified) | inconclusive: 39.8 µM [inhibitor, partial curve] | 
CC(C)COc1nc2ccccc2c(=O)n1OCC(=O)O | inconclusive: 50.1 µM [inhibitor, single point] | 
O=C(CN1C(=O)NC2NC(=O)NC21)N/N=C/c1ccccc1O (stereo unspecified) |  | inactive: 33.8%
Nc1c(N=Nc2ccc(-c3ccc(N=Nc4cc(S(=O)(=O)O)c5ccccc5c4N)cc3)cc2)cc(S(=O)(=O)O)c2ccccc12 | inconclusive: 28.2 µM [inhibitor, partial curve] | 
CC(OC(=O)c1cccc(S(=O)(=O)Nc2ccccc2F)c1)C(=O)NCc1ccc2c(c1)OCO2 (stereo unspecified) | inconclusive: 15.8 µM [inhibitor, single point] | 
COc1ccccc1C(=O)Nc1ccc2c(c1)nc(CCNC(=O)c1ccccc1)n2C |  | inactive: -7.03%
O=C(COC(=O)c1cccc(NC(=O)c2ccc(Br)cc2)c1)c1ccc(Cl)cc1 | inconclusive: 3.55 µM [inhibitor, full curve] | 
CC12CC(c3ccccc3O1)N(C(=O)c1ccco1)C(=S)N2c1ccc(F)cc1 (stereo unspecified) | inconclusive: 2.24 µM [inhibitor, full curve] | 
COc1ccc(OC)c2c1C(=O)c1ccccc1C2=O |  | inactive: 49.8%
Cc1ccc(C(=O)CSc2nnc(-c3ccco3)n2Cc2ccccc2)cc1 | inconclusive: 31.6 µM [inhibitor, partial curve] | 
O=C(CN1C(=O)C2CC=CCC2C1=O)Nc1nnc(SCc2c(Cl)cccc2Cl)s1 (stereo unspecified) | inconclusive: 3.55 µM [inhibitor, partial curve] | 
C/C(=N\NC(=O)c1cccc(S(=O)(=O)Nc2ccccc2Cl)c1)c1ccc(-n2ccnc2)cc1 | inconclusive: 35.5 µM [inhibitor, single point] | 
Cc1cc(/C=N/n2cnnc2)c(C)n1-c1ccc(OCc2ccccc2F)cc1 | inconclusive: 39.8 µM [inhibitor, partial curve] | 
CCc1cccc(CC)c1NC(=S)NCCc1c(C)[nH]c2ccc(C)cc12 |  | inactive: -8.34%
CC1CCCN(CCCNC(=O)c2cc3c(Cl)nc4ccccc4c3s2)C1 (stereo unspecified) | inconclusive: 35.5 µM [inhibitor, single point] | 
CCOC(=O)Cc1csc(NC(=O)CCCCCN2C(=O)c3ccccc3C2=O)n1 | inconclusive: 20 µM [inhibitor, partial curve] | 

SMILES | Potency | activity change, negative = displacement
O=C(Nc1ccc2nc(-c3ccco3)[nH]c2c1)c1cccs1 |  | inactive: -5.57%
CC(=O)c1ccc(Nc2nc3ccccc3nc2NS(=O)(=O)c2cccs2)cc1 |  | inactive: -0.629%
S=c1nc(C23CC4CC(CC(C4)C2)C3)[nH][nH]1 | inconclusive: 22.4 µM [inhibitor, partial curve] | 
CC(=O)c1ccc(N=C2SCCCN2C(=O)C2CCCCC2)cc1 | inconclusive: 35.5 µM [inhibitor, single point] | 
CCc1cccc(C)c1NC(=O)c1cnn(-c2ccc(OC)cc2)c1C1CCN(C(=O)OC(C)(C)C)CC1 | inconclusive: 3.55 µM [inhibitor, full curve] | 
Oc1c(C(c2cccs2)N2CCN(c3ccccc3)CC2)ccc2cccnc12 (stereo unspecified) | inconclusive: 3.55 µM [inhibitor, full curve, poor fit] | 
CC(C(=O)NCCC1=CCCCC1)c1ccc([N+](=O)[O-])cc1 (stereo unspecified) | inconclusive: 31.6 µM [inhibitor, partial curve, poor fit] | 
CCCCOc1ccc(CSCCN=C(N)N)cc1 | inconclusive: 28.2 µM [inhibitor, partial curve] | 
Cc1cccc(NC(=O)[C@H](Cc2c[nH]c3ccccc23)NC(=O)[C@@H]2Cc3ccccc3CN2)c1 | inconclusive: 2.82 µM [inhibitor, full curve, poor fit] | 
O=S(=O)(NCC1CCCO1)c1ccc(-c2ccc(S(=O)(=O)NCC3CCCO3)cc2)cc1 (stereo unspecified) | inconclusive: 25.1 µM [inhibitor, single point] | 
NS(=O)(=O)OCC1CCCCC1 | inconclusive: 28.2 µM [inhibitor, partial curve] | 
CC(=O)NC(c1cccc([N+](=O)[O-])c1)c1ccc2cccnc2c1O (stereo unspecified) |  | inactive: -7.73%
Cc1ccc(N=Nc2ccc(N)cc2C)c(S(N)(=O)=O)c1 | inconclusive: 22.4 µM [inhibitor, partial curve] | 
CCOc1ccc(NC(=O)c2ccc3c(=O)n(-c4ccc(OC)cc4OC)c(=S)[nH]c3c2)cc1 |  | inactive: -2.64%
CC[C@@H](C)C(NC(=O)OC(C)(C)C)c1cn([C@@H](Cc2cc3ccccc3[nH]2)C(=O)N2CCN(C(=O)OC(C)(C)C)CC2)nn1 (stereo partly specified) | inconclusive: 3.55 µM [inhibitor, full curve, poor fit] | 
COc1ccc(-c2noc(-c3ccc(NC4CCCC4)c([N+](=O)[O-])c3)n2)cc1OC | inconclusive: 25.1 µM [inhibitor, partial curve] | 
CCOc1ccc(C(Nc2cccnc2)c2cc(Cl)c3cccnc3c2O)cc1 (stereo unspecified) |  | inactive: -11%
Cc1ccc(Cn2cccc(NC(=O)CCC3CCCC3)c2=O)cc1 | inconclusive: 7.08 µM [inhibitor, full curve] | 
COc1ccc(OC(=O)c2ccc(Cl)cc2)c(C(C)=O)c1 | inconclusive: 39.8 µM [inhibitor, single point] | 
CC(C)c1ccc(NC2CCCN(C(=O)c3cnsn3)C2)cc1 (stereo unspecified) | inconclusive: 28.2 µM [inhibitor, partial curve] | 
CCC(CC)C(=O)Nc1ccc(C)cc1O | inconclusive: 17.8 µM [inhibitor, partial curve] | 
CCCn1cc(S(=O)(=O)c2cc(C)ccc2C)c(=O)c2cc(F)c(N3CCN(CC)CC3)cc21 | inconclusive: 28.2 µM [inhibitor, single point] | 

SMILES | Potency | activity change, negative = displacement
CCOC(=O)c1nnn(-c2nonc2-n2cccc2)c1CN1CCCCC1 | inconclusive: 31.6 µM [inhibitor, partial curve] | 
N#C/C(C(=O)c1ccccc1)=C1/SC=C(N)N1c1ccccc1 | inconclusive: 31.6 µM [inhibitor, partial curve] | 
COc1cccc(OCc2nnc(SCc3cc(=O)[nH]c4ccccc34)o2)c1 | inconclusive: 28.2 µM [inhibitor, partial curve] | 
Cc1cc(C(=O)COc2cc(F)ccc2[N+](=O)[O-])c(C)n1C1CC1 | inconclusive: 28.2 µM [inhibitor, partial curve] | 
CN1c2ccccc2C(C)(C)C12C=Cc1cc(O)ccc1O2 (stereo unspecified) | inconclusive: 31.6 µM [inhibitor, partial curve] | 
O=C(Cn1nnc2ccccc21)c1ccc(Br)cc1 |  | inactive: 2.1%
CCCCCCCCC/C(=N\O)c1ccccn1 | inconclusive: 22.4 µM [inhibitor, partial curve] | 
Cc1ccc(CNc2nc3ccccc3s2)s1 | inconclusive: 3.55 µM [inhibitor, full curve] | 
O=C(N/N=C/c1ccccc1Cl)c1n[nH]c2c1CCCC2 |  | inactive: 3.38%
CCCOc1ccc(C2c3c(oc4ccccc4c3=O)C(=O)N2CCCN2CCOCC2)cc1 (stereo unspecified) |  | inactive: -0.889%
COc1cc(NC(=O)Cc2ccccc2)cc(OC)c1 | inconclusive: 44.7 µM [inhibitor, partial curve, poor fit] | 
COc1ccc(CNC(=O)COC(=O)CCC2CCCCC2)cc1 | inconclusive: 15.8 µM [inhibitor, partial curve] | 
Cc1cc(C)cc(NC(=O)CSc2nnc(-c3ccc(S(=O)(=O)N4CCCC4)cc3)o2)c1 | inconclusive: 17.8 µM [inhibitor, partial curve] | 
Cc1ccc(C)c(C(=O)CSc2nnc(C)s2)c1 | inconclusive: 22.4 µM [inhibitor, single point] | 
Cc1ccc(CCNC(=O)c2nnn(-c3cccc(C)c3)c2N)cc1 | inconclusive: 35.5 µM [inhibitor, single point] | 
COc1ccccc1[C@H]1C(c2cccc(Cl)c2)=NN(c2ccccc2)[C@@H]1CO |  | inactive: 685% [at 110 µM]
O=C(Nc1nnc(S(=O)(=O)N2CCCCCC2)s1)c1ccccc1F | inconclusive: 35.5 µM [inhibitor, partial curve, poor fit] | 
CCOC(=O)C1CCN(S(=O)(=O)c2ccc(NC(=O)OC)cc2)CC1 |  | inactive: -12%
Cn1c(-c2ccccc2)cc2c3no[n+]([O-])c3ccc21 |  | inactive: -10.5%
CN(C)C(CNC(C(=O)Nc1ccc([N+](=O)[O-])cc1Br)c1ccccc1)c1ccccc1 (stereo unspecified) | inconclusive: 17.8 µM [inhibitor, partial curve] | 
O=C(O)C1CCN(c2nc(-c3ccccc3)nc3c2oc2ccccc23)CC1 |  | inactive: -8.67%
Cc1ccc(C(=O)N2CCN(S(=O)(=O)c3ccc(Br)cc3)CC2)o1 |  | inactive: -15.7%
